Where a chain is given by its changes, count along the chain named. Names may count otherwise. No constants are given. Whether binding was seen depends on the method and setting. For part of these data: Binding seen in cells or lysates may run through a third protein. Some results given as binding are weak or reduced against the parent protein; the word gives no strength. Sequences can lack the tags named with a protein.
Assays:
[1] = biological target: T1, DB:UCN (UNICORN fused to the DNA-binding domain of GAL4) (Arabidopsis thaliana) (UniProt Q9SYB9); assay: two-hybrid; GAL4 system: DB:UCN versions with AD:PDK1 versions in yeast AH109; growth on SD medium without Leu, Trp, His and Adenine with 5 mM 3-AT, 30°C, 3 days; repeated three times
T1 sequence: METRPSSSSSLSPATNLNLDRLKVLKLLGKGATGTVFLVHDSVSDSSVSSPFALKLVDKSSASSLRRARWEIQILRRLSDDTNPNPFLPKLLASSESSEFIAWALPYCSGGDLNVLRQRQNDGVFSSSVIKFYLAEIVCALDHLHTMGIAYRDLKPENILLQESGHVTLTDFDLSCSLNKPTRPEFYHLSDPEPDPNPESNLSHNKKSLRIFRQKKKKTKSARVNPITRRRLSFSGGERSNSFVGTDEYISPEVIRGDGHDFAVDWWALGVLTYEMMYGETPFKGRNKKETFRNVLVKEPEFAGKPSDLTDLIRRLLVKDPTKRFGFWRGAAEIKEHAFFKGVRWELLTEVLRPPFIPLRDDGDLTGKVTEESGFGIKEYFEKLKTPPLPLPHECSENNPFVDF

[2] = biological target: T2, DB:UCNKD (UCN_(K55E)) (Arabidopsis thaliana) (UniProt Q9SYB9); assay: as above
T2 sequence: T1 sequence with K55E

[3] = biological target: T3, DB:UCN_(G165S) (Arabidopsis thaliana) (UniProt Q9SYB9); assay: as above
T3 sequence: T1 sequence with G165S

[4] = biological target: T4, DB:UCN_(KD/ΔPIF) (Arabidopsis thaliana) (UniProt Q9SYB9); assay: as above
T4 sequence: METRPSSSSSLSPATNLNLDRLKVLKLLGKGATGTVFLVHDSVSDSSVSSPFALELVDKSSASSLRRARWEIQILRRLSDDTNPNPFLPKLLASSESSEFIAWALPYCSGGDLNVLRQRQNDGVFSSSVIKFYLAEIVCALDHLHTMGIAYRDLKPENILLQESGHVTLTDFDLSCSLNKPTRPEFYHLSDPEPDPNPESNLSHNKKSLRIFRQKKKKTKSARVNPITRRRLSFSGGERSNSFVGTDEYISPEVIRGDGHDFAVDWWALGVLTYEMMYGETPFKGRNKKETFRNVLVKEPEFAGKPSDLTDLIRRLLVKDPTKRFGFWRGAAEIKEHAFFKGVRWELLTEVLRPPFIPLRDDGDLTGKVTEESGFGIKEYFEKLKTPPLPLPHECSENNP

[5] = biological target: T5, DB:UCN_(ΔPIF) (Arabidopsis thaliana) (UniProt Q9SYB9); assay: as above
T5 sequence: T4 sequence with E55K

[6] = biological target: T6, UCN:YFPC (UNICORN fused to the C-terminal part of YFP) (Arabidopsis thaliana) (UniProt Q9SYB9); assay: split reporter; BiFC with split YFP (pSPYNE-35S / pSPYCE-35S) in Arabidopsis Col-0 mesophyll protoplasts; 21°C in the dark for 10 to 15 hours; confocal microscopy
T6 sequence: T1 sequence

[7] = biological target: T7, UCNKD:YFPC (UCN_(K55E)) (Arabidopsis thaliana) (UniProt Q9SYB9); assay: as above
T7 sequence: T1 sequence with K55E

[8] = biological target: T8, UCN_(G165S):YFPC (Arabidopsis thaliana) (UniProt Q9SYB9); assay: as above
T8 sequence: T1 sequence with G165S

[9] = biological target: T9, UCN_(KD/ΔPIF):YFPC (Arabidopsis thaliana) (UniProt Q9SYB9); assay: as above
T9 sequence: T4 sequence

[10] = biological target: T10, UCN_(ΔPIF):YFPC (Arabidopsis thaliana) (UniProt Q9SYB9); assay: as above
T10 sequence: T4 sequence with E55K

B1: AD:PDK1.1 (3-PHOSPHOINOSITIDE-… PROTEIN KINASE 1.1 fused to the activation domain of GAL4) (enzyme, UniProt Q9XF67 1-491)
chain: MLAMEKEFDSKLVLQGNSSNGANVSRSKSFSFKAPQENFTSHDFEFGKIYGVGSYSKVVRAKKKETGTVYALKIMDKKFITKENKTAYVKLERIVLDQLEHPGIIKLYFTFQDTSSLYMALESCEGGELFDQITRKGRLSEDEARFYTAEVVDALEYIHSMGLIHRDIKPENLLLTSDGHIKIADFGSVKPMQDSQITVLPNAASDDKACTFVGTAAYVPPEVLNSSPATFGNDLWALGCTLYQMLSGTSPFKDASEWLIFQRIIARDIKFPNHFSEAARDLIDRLLDTEPSRRPGAGSEGYVALKRHPFFNGVDWKNLRSQTPPKLAPDPASQTASPERDDTHGSPWNLTHIGDSLATQNEGHSAPPTSSESSGSITRLASIDSFDSRWQQFLEPGESVLMISAVKKLQKITSKKVQLILTNKPKLIYVDPSKLVVKGNIIWSDNSNDLNVVVTSPSHFKICTPKKVLSFEDAKQRASVWKKAIETLQNR
With B1 the binding [1] was “binds”, the binding [2] was “no binding” and the binding [3] was “no binding”. The binding [4] was “no binding” and the binding [5] was “no binding”.

B2: PDK1.1:YFPN (PDK1.1 fused to the N-terminal part of YFP) (enzyme, UniProt Q9XF67 1-491)
chain: B1 chain
For B2, the binding [6] was “binds”, the binding [7] was “no binding” and the binding [8] was “no binding”. The binding [9] was “no binding” and the binding [10] was “no binding”.

B3: AD:PDK1.1KD (PDK1.1_(K73A)) (enzyme, UniProt Q9XF67 1-491)
chain: B1 chain with K73A
In the case of B3, the binding [1] is reported as “no binding”.

B4: PDK1.1KD (PDK1.1_(K73A)), BiFC fusion (enzyme, UniProt Q9XF67 1-491)
chain: B1 chain with K73A
With B4 the binding [6] was “no binding”.
